Among all 310,000 compounds or so, about 11,000 (3.5%) were called active. This list was built around the results that the source calls inconclusive (neither active nor inactive); the mix of calls is not that of the screen. The call rests on the fitted dose curve; in most records, active means well fitted inhibition curve with a large enough effect; inconclusive means small, poorly fitted or top-dose-only effect, or effect the other way; inactive means flat fitted curve, though single readings scatter. No potency is given beside an inconclusive call; the fits are too rough.
Assay: VP16 counterscreen qHTS for inhibitors of ROR gamma transcriptional activity;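 further: Gal4-VP16 expression switched on by copper sulfate through the metallothionein promoter; nearly all actives have a fitted effect of over 50% in size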
Settings: Drosophila S2 Gal4-VP16 UAS-luciferase, luminescence, 20 h; activity, negative = inhibition: at 53.6 µM (top of the series)
On the % scale 0 is the no-effect control and ±100 the full control effect; potency means the concentration at half of the fitted maximal effect; tags describe the fitted curve by direction and shape.

Structure (SMILES) | Potency | activity, negative = inhibition
COc1ccc(OCc2cc(C(=O)N(C)Cc3nnc(C)o3)no2)c(Cl)c1 | inconclusive [inhibitor, single point] | –
COc1ccc(NS(=O)(=O)c2cc(NC(=O)CNC(=O)c3cccc(OC)c3)ccc2C)cc1 | – | inactive: -9.06%
COc1cc(CN(C)C(C)C(=O)Nc2ccc([N+](=O)[O-])cc2Cl)ccc1OC(F)F (stereo not given) | – | inactive: -2.56%
CC(=O)c1ccc(OCC(O)CN2CCN(CCN3C(=O)c4cccc5cccc(c45)C3=O)CC2)cc1 (stereo not given) | inconclusive [inhibitor, partial curve] | –
NC(=S)Nc1ncc(C(F)(F)F)cc1Cl | inconclusive [inhibitor, single point] | –
O=c1[nH]c(CSc2ccccn2)nc2c1oc1ccccc12 | inconclusive [inhibitor, single point] | –
COC(=O)COc1ccc(S(=O)(=O)Nc2ccc(C(N)=O)cc2)cc1C | inconclusive [inhibitor, single point] | –
COc1ccc(C2=NN(C(=O)CCC(=O)O)C(c3ccccc3OC)C2)cc1 (stereo not given) | – | inactive: 2.66%
O=C1C2=CC[C@H]3C(=O)N(C[C@@H]4CCCO4)C(=O)[C@@H]3[C@@H]2[C@H](O)[C@@H]2O[C@H]12 | inconclusive [inhibitor, single point] | –
O=C(C1CCN(c2nnc(N3CCCC3=O)s2)CC1)N1CCN(c2cccc(C(F)(F)F)c2)CC1 | inconclusive [inhibitor, partial curve] | –
O=C(Nc1ccccn1)c1ccc([N+](=O)[O-])o1 | inconclusive [inhibitor, single point] | –
O=C(N/N=C/c1cccc2cccnc12)[C@H]1C[C@@H]1c1ccccc1 | active: 8.91 µM | –
Cc1cc(C)cc(N(C(=O)c2nsc(Cl)c2Cl)C(C(=O)NC2CCCC2)c2ccc(O)cc2)c1 (stereo not given) | – | inactive: -10.9%
N=c1n(CCN2CCCCC2)c2ccccc2n1CC(O)COc1ccccc1 (stereo not given) | – | inactive: -5.18%
CCOC(=O)C1=C(C)NC(C)=C(C(=O)OCC)C1c1ccccc1C=CC(=O)OC(C)(C)C | inconclusive [inhibitor, single point] | –
COc1ccc(Nc2nc(C)nc3sc4c(c23)CCC4)cc1O | – | inactive: -11.2%
CCCC(=O)NC(=S)Nc1cccc(NC(=O)c2ccccc2)c1 | active: 3.55 µM | –
CC(C)(C)c1ccc(OC2=CS(=O)(=O)c3ccccc32)cc1 | inconclusive [inhibitor, single point] | –
COc1ccc(-c2cc(C(=O)Nc3cccc(O)c3)no2)cc1 | active: 3.16 µM | –
CC1(C)SC(=S)N(/N=C/c2ccccc2O)C1N(O)C(=O)Nc1ccccc1 (stereo not given) | inconclusive [inhibitor, single point] | –
C/C(=N/NC(=O)CCCOc1ccc(Cl)cc1Cl)c1ccc(C)o1 | inconclusive [inhibitor, single point] | –
Cc1ccc(C(=O)O/N=C(\N)c2cccnc2)cc1[N+](=O)[O-] | – | inactive: -6.76%
Cc1ccc(Cn2c(/C=C/c3ccco3)nc3ccccc32)cc1 | inconclusive [inhibitor, single point] | –

Structure (SMILES) | Potency | activity, negative = inhibition
Cc1cc(C(=O)N(C)Cc2c(F)cccc2Cl)c2ccccc2n1 | inconclusive [inhibitor, single point] | –
Cc1cc(C)cc(OCC(=O)O/N=C(\N)c2ccccn2)c1 | inconclusive [inhibitor, single point] | –
O=C(NC(=S)Nc1ccccc1N1CCN(C(=O)c2ccccc2)CC1)c1ccccc1F | inconclusive [inhibitor, single point] | –
COc1ccc(N=C(NN)c2ccc3ccccc3n2)cc1 | inconclusive [inhibitor, single point] | –
CCN(CC)C(=O)c1cc([N+](=O)[O-])cc2c1-c1ccc([N+](=O)[O-])cc1C2=C(C#N)C#N | active: 20 µM | –
CCc1ccc(NSc2ccccc2[N+](=O)[O-])cc1 | inconclusive [inhibitor, single point] | –
Cc1cc(C)n(CCC(=O)Nc2ccc3c(c2)OCCO3)n1 | – | inactive: 2.53%
CCN(CC)S(=O)(=O)c1ccc(N/N=C/c2ccc(O)cc2O)nc1 | inconclusive [inhibitor, single point] | –
CCCc1cc2c(c(=O)o1)C(O)C1OC1C2=O (stereo not given) | inconclusive [inhibitor, single point] | –
O=c1cc(/C=C/c2ccccc2)oc2ccccc12 | inconclusive [activator, full curve] | –
CCOC(=O)OCC1OC(c2ccc(C(C)=O)cc2)C=CC1Oc1ccc(-c2ccccc2)cc1 (stereo not given) | – | inactive: 6.38% [at 10 µM]
O=C(NCc1ccccc1)C(=O)NCC1OCCN1C(=O)c1cccs1 (stereo not given) | – | inactive: -3.03%
O=C(NCSc1ccncn1)c1ccccc1 | – | inactive: 2.83%
COc1cc2[nH]c(=S)n(CC3CCCO3)c(=O)c2cc1OC (stereo not given) | inconclusive [inhibitor, single point] | –
CN(C)c1ccc(NC(=S)NC(=O)/C=C/c2ccc(Cl)cc2)cc1 | inconclusive [inhibitor, single point] | –
O=c1oc2ccccc2c(Nc2ccccc2O)c1[N+](=O)[O-] | – | inactive: 7.34%
CCOc1ccc(C(=O)NC(=S)Nc2ccccn2)cc1[N+](=O)[O-] | inconclusive [inhibitor, partial curve] | –
O=c1c(Sc2ccccc2)c(C(F)(F)F)[nH]n1-c1ccccc1 | inconclusive [inhibitor, partial curve] | –
CC(C)(C)c1ccc(OCc2ccc(C(=O)Nc3cccnc3)o2)cc1 | inconclusive [inhibitor, single point] | –
Cn1c2ccccc2c2cc([N+](=O)[O-])ccc21 | – | inactive: -7.17%
Cc1nnc(Sc2cc(NCCO)c([N+](=O)[O-])c3nonc23)s1 | inconclusive [inhibitor, single point] | –
O=C(COc1ccc([N+](=O)[O-])cc1)NNC(=S)NC(=O)c1ccc(Br)cc1 | inconclusive [inhibitor, single point] | –
